Test results: a collection of fitness landscapes (doi:10.1038/s41467-024-54723-y)
In all, about 18,000 sequences were measured (“TetR repression strength (sort-seq, GFP reporter)”: median about 0.23, highest 2% from about 0.68 on). Some of the results follow.

molecular target: TetR (class B, Tn10) (UniProt P04483); assay: TetR repression strength (sort-seq, GFP reporter) (relative to tetO2 = 1); higher = stronger repression; conditions: E. coli
In short: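 E. coli SIG10-MAX carried a low-copy plasmid library with eight randomized operator positions between a constitutive promoter and sfGFP, with TetR constitutively expressed. Cells grew 5 h at 37 °C in LB with 50 µg/mL chloramphenicol, then 10^6 cells were FACS-sorted into 13 fluorescence bins, each Illumina-sequenced. Repression strength is the top bin index plus one minus the read-weighted mean bin, divided by the wild-type operator value. Three independent transformations; variants with ≥30 reads in all replicates and CV ≤0.5 were averaged.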

Chain of UniProt P04483 (P04483 whole entry): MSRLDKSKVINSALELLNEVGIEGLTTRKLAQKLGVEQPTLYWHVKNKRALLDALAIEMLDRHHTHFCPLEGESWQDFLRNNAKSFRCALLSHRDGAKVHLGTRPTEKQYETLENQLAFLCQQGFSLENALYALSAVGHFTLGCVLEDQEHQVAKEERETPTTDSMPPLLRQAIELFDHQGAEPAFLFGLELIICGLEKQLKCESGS

Sequence | TetR repression strength
TCCCTCTCAGTAATGGAGA | 0.425
TCCCATCAAGTGGAGGAGA | 0.159
TCCCCGGAAGTGTAAGAGA | 0.323
TCCCGCGTAGTGCAGGAGA | 0.245
TCCCAAAAAGTTACTGAGA | 0.419
TCCCGCAGAGTTGGCGAGA | 0.186
TCCCGAGGAGTACTGGAGA | 0.232
TCCCGGCCAGTGTTGGAGA | 0.226
TCCCGTGCAGTCGAGGAGA | 0.171
TCCCCAGGAGTGCGTGAGA | 0.384
TCCCTGCGAGTGGCCGAGA | 0.158
TCCCCGACAGTTTACGAGA | 0.272
TCCCATGTAGTCCACGAGA | 0.169
TCCCGAGGAGTGCGCGAGA | 0.117
TCCCGATAAGTCAGGGAGA | 0.162
TCCCAGTGAGTGGGAGAGA | 0.149
TCCCATTTAGTTACTGAGA | 0.233
TCCCTGATAGTACAAGAGA | 0.289
TCCCTGTAAGTGGCCGAGA | 0.204
TCCCATTTAGTCAACGAGA | 0.406
TCCCGTAGAGTCGTTGAGA | 0.197
TCCCCGCTAGTGTGTGAGA | 0.324
TCCCAGCCAGTGGGAGAGA | 0.113
TCCCTCGGAGTCGAGGAGA | 0.333
TCCCAACTAGTGTTTGAGA | 0.137
TCCCCTTCAGTGTACGAGA | 0.517

Sequence | TetR repression strength
TCCCCAGCAGTACAAGAGA | 0.285
TCCCGTATAGTTGTCGAGA | 0.0938
TCCCAGGTAGTAGTGGAGA | 0.0813
TCCCAGCAAGTTGTTGAGA | 0.157
TCCCGGGAAGTGTCGGAGA | 0.174
TCCCCCGCAGTTATGGAGA | 0
TCCCGCCCAGTGCGGGAGA | 0.145
TCCCTATGAGTGCTCGAGA | 0.295
TCCCGGTGAGTCTCGGAGA | 0.185
TCCCCAGGAGTGTCTGAGA | 0.273
TCCCGTGCAGTGGACGAGA | 0.242
TCCCGACTAGTGCTGGAGA | 0.267
TCCCCCATAGTGACCGAGA | 0.481
TCCCAGACAGTGGCGGAGA | 0.296
TCCCTTCAAGTAAAAGAGA | 0.00635
TCCCATCCAGTGTGAGAGA | 0.147
TCCCTTGGAGTCCTGGAGA | 0.363
TCCCCAGGAGTGTTTGAGA | 0.458
TCCCGTTCAGTGCGGGAGA | 0.0923
TCCCGGTCAGTCGCAGAGA | 0.129
TCCCGGTAAGTATTTGAGA | 0.615
TCCCACAAAGTAGTAGAGA | 0.186
TCCCATTTAGTCTTCGAGA | 0.227
TCCCTGTGAGTCGCAGAGA | 0.172
TCCCACGGAGTCGACGAGA | 0.263
TCCCGTGAAGTCACTGAGA | 0.253

Sequence | TetR repression strength
TCCCTCGGAGTGGAGGAGA | 0.0887
TCCCAGGGAGTGGTCGAGA | 0.152
TCCCACGGAGTGGTCGAGA | 0.116
TCCCTTATAGTCGATGAGA | 0.352
TCCCACCAAGTGTAGGAGA | 0.214
TCCCCGGCAGTCTTGGAGA | 0.223
TCCCGAGTAGTGAGGGAGA | 0.242
TCCCGTGGAGTGTTTGAGA | 0.223
TCCCTCACAGTATAAGAGA | 0.34
TCCCTGCTAGTGTTTGAGA | 0.175
TCCCGTCTAGTTTTAGAGA | 0.311
TCCCGGGCAGTCGGTGAGA | 0.245
TCCCCACTAGTGGGTGAGA | 0.361
TCCCGTTTAGTGAAGGAGA | 0.211
TCCCTGGTAGTATGAGAGA | 0.219
TCCCGTTAAGTCGGTGAGA | 0.348
TCCCTCTCAGTCGTGGAGA | 0.157
TCCCCATGAGTAGAGGAGA | 0.178
TCCCCAGCAGTGGGGGAGA | 0.174
TCCCAAAGAGTGGTCGAGA | 0.0159
TCCCCGTGAGTCCTAGAGA | 0.559
TCCCGGAGAGTTCAAGAGA | 0.362
TCCCTGTTAGTTGGTGAGA | 0.0207
TCCCGTTGAGTGCATGAGA | 0.105
TCCCGGCGAGTGGTAGAGA | 0.306
TCCCCTACAGTGAATGAGA | 0.311

Sequence | TetR repression strength
TCCCATGGAGTTGTTGAGA | 0.324
TCCCGGCCAGTTTGGGAGA | 0.281
TCCCAACCAGTTGTGGAGA | 0.257
TCCCCATCAGTGTCTGAGA | 0.579
TCCCGACGAGTGTGTGAGA | 0.173
TCCCATGTAGTGCGTGAGA | 0.231
TCCCCGGAAGTAGGGGAGA | 0.243
TCCCTTTGAGTCAACGAGA | 0.0848
TCCCTCGGAGTCGCTGAGA | 0.323
TCCCATGGAGTAGATGAGA | 0.0211
TCCCGCCCAGTTGTCGAGA | 0.0341
TCCCGCAGAGTAACTGAGA | 0.197
TCCCTGTCAGTATGTGAGA | 0.225
TCCCTCTTAGTAGGTGAGA | 0.344
TCCCTGACAGTGTACGAGA | 0.0921
TCCCGAGCAGTGAAAGAGA | 0.755
TCCCTGTTAGTTGGCGAGA | 0.0205
TCCCTCCCAGTAGGGGAGA | 0.174
TCCCTAAAAGTATCTGAGA | 0.22
TCCCATCGAGTTCAAGAGA | 0.439
TCCCAGCAAGTTGTCGAGA | 0.286
TCCCCGTGAGTGGGAGAGA | 0.0366
TCCCGTGCAGTAAAAGAGA | 0.332
TCCCCATGAGTTTAAGAGA | 0.113
TCCCATCGAGTTTATGAGA | 0.0488
TCCCTGTGAGTAGGTGAGA | 0.163

Sequence | TetR repression strength
TCCCTCACAGTGGTGGAGA | 0.278
TCCCAAGGAGTCAGCGAGA | 0.104
TCCCTGCCAGTCCCAGAGA | 0.313
TCCCAGGGAGTGCTGGAGA | 0.333
TCCCCCGGAGTATTTGAGA | 0.277
TCCCGGAGAGTGAGCGAGA | 0.161
TCCCGGGAAGTTCAGGAGA | 0.2
TCCCACTGAGTTGACGAGA | 0.211
TCCCCGGCAGTGATGGAGA | 0.177
TCCCCCCGAGTGTACGAGA | 0.257
TCCCGATAAGTGCGCGAGA | 0.158
TCCCTGATAGTCATTGAGA | 0.278
TCCCGGTGAGTAAGAGAGA | 0.32
TCCCTTTCAGTATGGGAGA | 0.422
TCCCCTAGAGTGAAAGAGA | 0.479
TCCCCTTAAGTCGTGGAGA | 0.061
TCCCATCGAGTCGGTGAGA | 0.179
TCCCAGGTAGTGTGTGAGA | 0.146
TCCCAGTAAGTAGGTGAGA | 0.246
TCCCGTTAAGTGGCTGAGA | 0.187
TCCCGGTAAGTACGCGAGA | 0.0772
TCCCTAGAAGTTCAGGAGA | 0.252
TCCCAGTCAGTCTGTGAGA | 0.221
TCCCATTCAGTTGGGGAGA | 0.43
TCCCGTTCAGTCTCAGAGA | 0.307
TCCCAAAGAGTCGGGGAGA | 0.0626
